The source of these data is the supplement of paper PMC8728848.

The other results are listed elsewhere or left out.

What all share (test): glycan array binding signal (z-score within array); higher = stronger binding
Holding throughout (conditions): glycan notation: IUPAC condensed, linker removed

Assay [1] deals with Gal(b1-4)GlcNAc(b1-2)Man(a1-6)[GlcNAc(b1-2)Man(a1-3)]Man(b1-4)GlcNAc(b1-4)GlcNAc. Put shortly:
(§1)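 Glycan array binding is given as a within-array Z-score, which can be read as non-binding when negative. The arrays, 3228 of them, came from the Consortium for Functional Glycomics database and were retained only where the protein sequence was available. Z-scores were averaged across arrays of the same protein sequence at different concentrations or buffers and across linkers.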

The target of assay [2] is Gal(b1-4)GlcNAc(b1-2)Man(a1-6)[Man(a1-3)]Man(b1-4)GlcNAc(b1-4)GlcNAc. An outline of the steps: as §1
In assay [3] the target is Gal(b1-4)GlcNAc(b1-2)[Gal(b1-4)GlcNAc(b1-4)]Man(a1-3)[Gal(b1-4)GlcNAc(b1-2)Man(a1-6)]Man(b1-4)GlcNAc(b1-4)GlcNAc. Put shortly:
as §1

The target of assay [4] is Gal(b1-4)GlcNAc(b1-2)[Gal(b1-4)GlcNAc(b1-4)]Man(a1-3)[Gal(b1-4)GlcNAc(b1-2)[Gal(b1-4)GlcNAc(b1-6)]Man(a1-6)]Man(b1-4)GlcNAc(b1-4)GlcNAc. An outline of the steps:
as §1

For assay [5], the target named is Gal(b1-4)GlcNAc(b1-2)[Gal(b1-4)GlcNAc(b1-4)]Man(a1-3)[GlcNAc(b1-4)][Gal(b1-4)GlcNAc(b1-2)Man(a1-6)]Man(b1-4)GlcNAc(b1-4)GlcNAc. An outline of the steps: as §1
The target of assay [6] is Gal(b1-4)GlcNAc(b1-2)[Gal(b1-4)GlcNAc(b1-4)]Man(a1-3)[GlcNAc(b1-4)][Gal(b1-4)GlcNAc(b1-2)[Gal(b1-4)GlcNAc(b1-6)]Man(a1-6)]Man(b1-4)GlcNAc(b1-4)GlcNAc. Put shortly:
as §1

In assay [7] the target is Gal(b1-4)GlcNAc(b1-2)[Gal(b1-4)GlcNAc(b1-6)]Man(a1-6)[Gal(b1-4)GlcNAc(b1-2)Man(a1-3)]Man(b1-4)GlcNAc(b1-4)GlcNAc. An outline of the steps:
as §1

The target of assay [8] is Gal(b1-4)GlcNAc(b1-2)[Gal(b1-4)GlcNAc(b1-6)]Man(a1-6)[Gal(b1-4)GlcNAc(b1-2)Man(a1-3)]Man(b1-4)GlcNAc(b1-4)[Fuc(a1-6)]GlcNAc. An outline of the steps: as §1
For assay [9], the target named is Gal(b1-4)GlcNAc(b1-2)[Gal(b1-4)GlcNAc(b1-6)]Man(a1-6)[GlcNAc(b1-4)][Gal(b1-4)GlcNAc(b1-2)Man(a1-3)]Man(b1-4)GlcNAc(b1-4)GlcNAc. An outline of the steps:
as §1

Assay [10] deals with Gal(b1-4)GlcNAc(b1-2)[Gal(b1-4)GlcNAc(b1-6)]Man(a1-6)[GlcNAc(b1-4)][Gal(b1-4)GlcNAc(b1-2)[Gal(b1-4)GlcNAc(b1-4)]Man(a1-3)]Man(b1-4)GlcNAc(b1-4)[Fuc(a1-6)]GlcNAc. An outline of the steps:
as §1

In assay [11] the target is Gal(b1-4)GlcNAc(b1-3)Gal(b1-3)GalNAc. An outline of the steps:
as §1

The target in assay [12] is Gal(b1-4)GlcNAc(b1-3)Gal(b1-3)GlcNAc. An outline of the steps: as §1
Assay [13] has as its target Gal(b1-4)GlcNAc(b1-3)Gal(b1-4)Glc. An outline of the steps:
as §1

The target in assay [14] is Gal(b1-4)GlcNAc(b1-3)Gal(b1-4)GlcNAc. Put shortly: as §1
The target in assay [15] is Gal(b1-4)GlcNAc(b1-3)Gal(b1-4)GlcNAc(b1-2)Man(a1-3)[Gal(b1-4)GlcNAc(b1-3)Gal(b1-4)GlcNAc(b1-2)Man(a1-6)]Man(b1-4)GlcNAc(b1-4)GlcNAc. An outline of the steps:
as §1

Assay [16] deals with Gal(b1-4)GlcNAc(b1-3)Gal(b1-4)GlcNAc(b1-2)Man(a1-3)[Gal(b1-4)GlcNAc(b1-3)Gal(b1-4)GlcNAc(b1-2)Man(a1-6)]Man(b1-4)GlcNAc(b1-4)[Fuc(a1-6)]GlcNAc. An outline of the steps: as §1
For assay [17], the target named is Gal(b1-4)GlcNAc(b1-3)Gal(b1-4)GlcNAc(b1-2)[Gal(b1-4)GlcNAc(b1-3)Gal(b1-4)GlcNAc(b1-6)]Man(a1-6)[Gal(b1-4)GlcNAc(b1-3)Gal(b1-4)GlcNAc(b1-2)Man(a1-3)]Man(b1-4)GlcNAc(b1-4)GlcNAc. Put shortly: as §1
Assay [18] has as its target Gal(b1-4)GlcNAc(b1-3)Gal(b1-4)GlcNAc(b1-2)[Gal(b1-4)GlcNAc(b1-3)Gal(b1-4)GlcNAc(b1-6)]Man(a1-6)[Gal(b1-4)GlcNAc(b1-3)Gal(b1-4)GlcNAc(b1-2)Man(a1-3)]Man(b1-4)GlcNAc(b1-4)[Fuc(a1-6)]GlcNAc. Put shortly: as §1
In assay [19] the target is Gal(b1-4)GlcNAc(b1-3)Gal(b1-4)GlcNAc(b1-3)Gal(b1-4)GlcNAc. An outline of the steps: as §1
Assay [20] deals with Gal(b1-4)GlcNAc(b1-3)Gal(b1-4)GlcNAc(b1-3)Gal(b1-4)GlcNAc(b1-2)Man(a1-3)[Gal(b1-4)GlcNAc(b1-3)Gal(b1-4)GlcNAc(b1-3)Gal(b1-4)GlcNAc(b1-2)Man(a1-6)]Man(b1-4)GlcNAc(b1-4)GlcNAc. Put shortly: as §1
The target of assay [21] is Gal(b1-4)GlcNAc(b1-3)Gal(b1-4)GlcNAc(b1-3)Gal(b1-4)GlcNAc(b1-2)Man(a1-3)[Gal(b1-4)GlcNAc(b1-3)Gal(b1-4)GlcNAc(b1-3)Gal(b1-4)GlcNAc(b1-2)Man(a1-6)]Man(b1-4)GlcNAc(b1-4)[Fuc(a1-6)]GlcNAc. Put shortly:
as §1

Assay [22] deals with Gal(b1-4)GlcNAc(b1-3)Gal(b1-4)GlcNAc(b1-3)Gal(b1-4)GlcNAc(b1-2)[Gal(b1-4)GlcNAc(b1-3)Gal(b1-4)GlcNAc(b1-3)Gal(b1-4)GlcNAc(b1-6)]Man(a1-6)[Gal(b1-4)GlcNAc(b1-3)Gal(b1-4)GlcNAc(b1-3)Gal(b1-4)GlcNAc(b1-2)Man(a1-3)]Man(b1-4)GlcNAc(b1-4)[Fuc(a1-6)]GlcNAc. An outline of the steps:
as §1

B1: DC-ASGPR L+GEE (Homo sapiens) (protein)
chain: MTRTYENFQYLENKVKVQGFKNGPLPLQSLLQRLRSGPCHLLLSLGLGLLLLVIICVVGFQNSKFQRDLVTLRTDFSNFTSNTVAEIQALTSQGSSLEETIASLKAEVEGFKQERQAGVSELQEHTTQKAHLGHCPHCPSVCVPVHSEMLLRVQQLVQDLKKLTCQVATLNNNGEEASTEGTCCPVNWVEHQDSCYWFSHSGMSWAEAEKYCQLKNAHLVVINSREEQNFVQKYLGSAYTWMGLSDPEGAWKWVDGTDYATGFQNWKPGQPDDWQGHGLGGGEDCAHFHPDGRWNDDVCQRPYHWVCEAGLGQTSQESH
Consider B1, for which the “glycan array binding signal (z-score)” value in [1] was 0.573; in assay [2] it was 0.114; in assay [3] it was -0.114; in assay [4], -0.562; in assay [5], -0.308; in [6], -0.775. The “glycan array binding signal (z-score)” value in assay [7] is -0.462; in assay [8], 0.041; in [9], -0.309; in [10], -0.524; in assay [11], -0.773; in assay [12], -0.085. Also, the “glycan array binding signal (z-score)” value was -0.147 in assay [13]; 0.001 in assay [14]; 0.828 in assay [15]; -0.215 in assay [16]; 0.604 in assay [17]; -0.323 in assay [18]. In addition, the “glycan array binding signal (z-score)” value in assay [19] is -0.221; in assay [20], -0.068; in assay [21] it was 0.102; in assay [22], 0.024.
